We go through 14 molecules from article PMC12136788.

B1: chr3:63791606:63791607:+_ENSMUSG00000027823_ENSMUST00000029405|mus_mus|motif|central (ssRNA)
RNA: GGGAGUUCUACAGUCCGACGAUCAAGUAAAACAAUUUCUUCCUUCUGCAGGCCCCUGAAUAAUGAACACGUAUUAUCCAUACGGAUGUUGAAAACUCCAUCCUCUCUAACACUUUUUUUAUGCACAGUGCCUCCAAAGACUUUCAACAGAGGAUUGAGCAUCA
B2: chr10:112364898:112364899:-_ENSMUSG00000074748_ENSMUST00000099276|mus_mus|motif|central (ssRNA)
RNA: GGGAGUUCUACAGUCCGACGAUCAUCGAAUUCAAACGGGAAUAUUAAUAUUUUUAGUAUUUAAGUCACAUACCUGACUUCGGUUUGUAUCAAAGAGGCCCAAUUGGAGGCUUAGAAAUCAGAGGAGCAGUCCACCGAAGCUGACAACAGAGGAUUGAGCAUCA
B3: chr2:91074313:91074314:-_ENSMUSG00000002109_ENSMUST00000150427|mus_hu|FALSE|FALSE (ssRNA)
RNA: GGGAGUUCUACAGUCCGACGAUCUCCAAUCCCUUUGAUGAAGGUGGGUUUGUCCUUGAUGCCAAAAUUCCAGAGCAUGAUAUCUCCCCCUUUGGAACCCACAGCCACAGUGCUGGGGUGAGUUGGGUGCCACGCCAAGGAUGUCAACAGAGGAUUGAGCAUCA
B4: chr13:14146135:14146136:-_ENSMUSG00000021302_ENSMUST00000170957|mus_hu|FALSE|FALSE (ssRNA)
RNA: GGGAGUUCUACAGUCCGACGAUCAGUGUAUUCAAAAGAACCUACAUCCUCAAGAUAAUGUACACAGUAUUUUUUUAUAUCUAUGUUUUCUGUUCUCUGGCGCAAGAUAUUCUGCACCUGGGUGCUUUCAGGCCUUGACCAAAUCAACAGAGGAUUGAGCAUCA
B5: chr17:65740002:65740003:+_ENSG00000130935_ENST00000581375|hu_hu|hu_hu_hu_mus_False|28_88 (ssRNA)
RNA: GGGAGUUCUACAGUCCGACGAUCAACAAAUCUUUCUUCCCUGGACGCAAGAGUUCAUUCAUAUUAAAAAAAAUAUAUAUCCAUCAAGUUAGGUGUGGUGGCCACACAGAGCUCCAGAGCACUUUGGGAGGUGGAUCUCUGAGUCAACAGAGGAUUGAGCAUCA
B6: 76083062_76087528_4468_CDS_ENSG00000078687_ENST00000588847|human|control|control (ssRNA)
RNA: GGGAGUUCUACAGUCCGACGAUCCAGUCCAGCGAGAGGGUAAGGAGCAAAGGUGUUGGGUGAAGACUGCUGCUCUUUGGUCUGCAGGUCAGGUAGGCCGGGAGUCUGUGGGUGCGAGGGGAAGCUGUCCAUGGCCGAUUUGCCCAACAGAGGAUUGAGCAUCA
B7: 115421839_115421959_1997_CDS_ENSG00000165185_ENST00000337530|human|control|control (ssRNA)
RNA: GGGAGUUCUACAGUCCGACGAUCUUUGAGCAGCUCGAUGUCACCAUACAUCAGAUCCGCAUGCUCCUGCAGCGUCCGCAUGUUCAGGUACUGGCUGUUGUACUUGACCACAGUGGACAGGAGAGUGAUAGGGCUGUCAUCCCCCAACAGAGGAUUGAGCAUCA
B8: chr13:100193624:100193625:-_ENSMUSG00000052727_ENSMUST00000064762|mus_hu|FALSE|FALSE (ssRNA)
RNA: GGGAGUUCUACAGUCCGACGAUCUAAACCCUCAUCAUAGUUAGCAGUGCAAAACAUAGACUUAUCAGACAAAAAUCAACUAAAAUGUUAAUUUUGAAAUAAAUAACUAACAUAGAAAAUAAAAUGAGGUCAUUGUUCUCUACUCAACAGAGGAUUGAGCAUCA
B9: chr8:48265483:48265484:-_ENSMUSG00000038143_ENSMUST00000079195|mus_mus|FALSE|FALSE (ssRNA)
RNA: GGGAGUUCUACAGUCCGACGAUCAUAUCUUAAAAAGUAACACAAUCCAAAAUGGAUAUUUCACACAACACUACAUAUACAACAUGAACACAAUAUUACCAUAUGGAGGGACUUUCAAAUAUAGACUUACAAAAAUCCCUGUCCCAACAGAGGAUUGAGCAUCA
B10: 63412843_63413052_7627_CDS_ENSMUSG00000030451_ENSMUST00000076226|mouse|control|control (ssRNA)
RNA: GGGAGUUCUACAGUCCGACGAUCGUGGUCUAGCAGCCACCCAACCAAGGCUUCCACACCAGGCAAACCAGAUGCAUUCCCAGAGGUGCCGGUGAGCGACUUCAGAGCAAACUCUAUAUUUUUCCUUGGAAAUCCCAUUUCCAUCAACAGAGGAUUGAGCAUCA
B11: chr18:34659469:34659470:-_ENSMUSG00000036501_ENSMUST00000040506|mus_hu|FALSE|FALSE (ssRNA)
RNA: GGGAGUUCUACAGUCCGACGAUCGUCAUUUAUGGCUGUUUGAGAUUAUGGCAGAAGAUCAGCCUGUAGUUCCUCAUUGAAGAAAUGCAGAACUCGAUCAGUACUUCAGCAGUUAAUCGUUGGAACCGCGAUGCCCCGUUCCCUCAACAGAGGAUUGAGCAUCA
B12: chrX:112058718:112058719:-_ENSG00000126016_ENST00000371959|hu_mus|FALSE|FALSE (ssRNA)
RNA: GGGAGUUCUACAGUCCGACGAUCCAACCAUCUGCUGAGCUCUAGAGACCAUAGCAAAAGGGUCAGCUGGCAUGGGCUGAUAAGAAGCAGACUGCUGAGCCCGAGGCAUAGCUGAGUAGGCUUCUCCUGGCUGCUGCUGCGCUGCAACAGAGGAUUGAGCAUCA
B13: chr19:16212804:16212805:+_ENSG00000167460_ENST00000300933|hu_mus|hu_hu_hu_mus_False|68_78 (ssRNA)
RNA: GGGAGUUCUACAGUCCGACGAUCAACAAUUCUGGAGUGAAGGAAAGAUGUAACAUGCAAUUAAUUACCAUCUAUUACAGAAGGCACAUGGGCAACAAUGAUCACCCCAGCAUUCUCGCUUGGAAUGCUUAAAGACAAUCUGUUCAACAGAGGAUUGAGCAUCA
B14: chr13:36245089:36245090:+_ENSG00000172915_ENST00000537702|perfect_dup|FALSE|FALSE (ssRNA)
RNA: GGGAGUUCUACAGUCCGACGAUCUUCUGCUGCUUCUCUUCAGUACCUGUUCUGAUGCUCAUAAUGCCACCGAUUAAAAUCUAUAUUAAAAGCUACAAUGCUGCCGGAAGCCAUGCCAGUGAUCAGAGUCCUUUGGUCAUGGGACAACAGAGGAUUGAGCAUCA

The list shows a part of the results.

In this assay the target is T1, UNK ZnF1-3 (human, UniProt Q9C0B0 31-174).
T1 sequence: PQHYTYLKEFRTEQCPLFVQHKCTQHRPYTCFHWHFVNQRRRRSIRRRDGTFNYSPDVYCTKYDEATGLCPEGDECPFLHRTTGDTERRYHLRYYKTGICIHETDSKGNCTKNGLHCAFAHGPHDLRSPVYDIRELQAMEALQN
As to the kind of experiment: nsRBNS (natural sequence RNA bind-n-seq); RBNS binding buffer (assumed for nsRBNS): 25 mM Tris pH 7.5, 150 mM KCl, 3 mM MgCl2, 0.01% Triton X-100, 500 ug/ml BSA, 20 U/ml SUPERase-In, 4 C; UNK is unkempt and MSI1 is Musashi-1; names of the RNAs are library labels; protein concentration not given here; high values mean tight binding.
Take B1: the binding signal came out at 1.07 enrichment R. In turn, B2 returned a binding signal of 1.26 enrichment R.

In turn, B3 came in with a binding signal of 1.05 enrichment R. Regarding B4, the binding signal amounted to 0.569 enrichment R. The molecule B5 yielded a binding signal of 1.43 enrichment R.

On to B6, for which the binding signal amounted to 2.03 enrichment R.

In the case of B7, the binding signal amounted to 1.01 enrichment R. For B8, the binding signal stood at 1.8 enrichment R. For the molecule B9, the binding signal was found to be 0.866 enrichment R. To B10 belongs 1.31 enrichment R. B11 gave a binding signal of 0.674 enrichment R. To B12 belongs 0.976 enrichment R; to B13, 0.918 enrichment R; to B14, 1.28 enrichment R.
